Publication PMC7758049
Changes are numbered by the printed parent chain. No constants are given. Whether binding was seen depends on the method and setting. Some entries that bind do so weakly or less than the wild type. Sequences can lack the tags named with a protein.

Experiments:
[1] = target: T1, BD-myc-Dhr1 (S. cerevisiae) (UniProt Q04217); test: two-hybrid; AD-HA-Utp14 with BD-myc-Dhr1 (wild type or mutant); growth on SD-Leu-Trp-His- with 10 mM 3AT
T1 sequence: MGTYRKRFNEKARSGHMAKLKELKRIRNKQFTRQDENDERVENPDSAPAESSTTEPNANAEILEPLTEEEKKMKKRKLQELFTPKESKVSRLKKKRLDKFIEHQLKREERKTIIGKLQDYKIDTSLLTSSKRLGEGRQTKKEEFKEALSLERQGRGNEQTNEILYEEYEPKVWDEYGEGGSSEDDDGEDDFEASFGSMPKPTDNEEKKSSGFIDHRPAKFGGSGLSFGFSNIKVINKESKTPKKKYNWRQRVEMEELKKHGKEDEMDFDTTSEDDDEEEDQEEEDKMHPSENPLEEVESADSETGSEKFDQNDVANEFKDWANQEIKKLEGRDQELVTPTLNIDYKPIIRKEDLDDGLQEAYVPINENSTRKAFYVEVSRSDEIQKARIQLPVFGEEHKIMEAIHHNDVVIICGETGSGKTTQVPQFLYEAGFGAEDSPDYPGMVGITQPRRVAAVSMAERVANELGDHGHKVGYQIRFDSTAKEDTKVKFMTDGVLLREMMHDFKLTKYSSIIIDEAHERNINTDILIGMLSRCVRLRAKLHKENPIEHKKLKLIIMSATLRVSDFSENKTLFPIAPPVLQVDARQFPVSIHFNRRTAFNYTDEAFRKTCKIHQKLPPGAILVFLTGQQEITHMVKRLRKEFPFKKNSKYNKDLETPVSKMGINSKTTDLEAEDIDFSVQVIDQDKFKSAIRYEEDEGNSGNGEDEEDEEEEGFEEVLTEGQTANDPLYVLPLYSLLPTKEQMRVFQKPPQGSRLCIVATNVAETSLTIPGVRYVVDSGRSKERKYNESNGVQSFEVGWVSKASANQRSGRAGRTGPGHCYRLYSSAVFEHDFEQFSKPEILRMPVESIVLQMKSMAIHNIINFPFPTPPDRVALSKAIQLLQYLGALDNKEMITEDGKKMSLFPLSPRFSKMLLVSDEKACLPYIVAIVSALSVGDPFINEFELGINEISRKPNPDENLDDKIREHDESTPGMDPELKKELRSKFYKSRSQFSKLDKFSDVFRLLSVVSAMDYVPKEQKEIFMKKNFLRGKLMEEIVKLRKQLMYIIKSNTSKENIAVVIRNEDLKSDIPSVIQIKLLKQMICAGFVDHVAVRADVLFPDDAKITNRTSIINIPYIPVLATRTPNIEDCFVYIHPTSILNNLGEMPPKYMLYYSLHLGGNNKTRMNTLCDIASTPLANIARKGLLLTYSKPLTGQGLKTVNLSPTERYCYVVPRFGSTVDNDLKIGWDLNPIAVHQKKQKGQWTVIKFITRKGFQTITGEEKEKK

[2] = target: T2, GAL4BD-c-myc-DHR1-E360K, E397D, E402G, D408Y (S. cerevisiae) (UniProt Q04217); test: as above
T2 sequence: T1 sequence with E360K, E397D, E402G, D408Y

binding [1]: binds
binding [2]: no binding
B1: AD-HA-Utp14 (protein, UniProt Q04500 1-899)
chain: MAKKKSKSRSKSSRRVLDALQLAEREINGEFDNSSDNDKRHDARRNGTVVNLLKRSKGDTNSDEDDIDSESFEDEELNSDEALGSDDDYDILNSKFSQTIRDKKENANYQEEEDEGGYTSIDEEDLMPLSQVWDMDEKTAQSNGNDDEDASPQLKLQDTDISSESSSSEESESESEDDEEEEDPFDEISEDEEDIELNTITSKLIDETKSKAPKRLDTYGSGEANEYVLPSANAASGASGKLSLTDMMNVIDDRQVIENANLLKGKSSTYEVPLPQRIQQRHDRKAAYEISRQEVSKWNDIVQQNRRADHLIFPLNKPTEHNHASAFTRTQDVPQTELQEKVDQVLQESNLANPEKDSKFEELSTAKMTPEEMRKRTTEMRLMRELMFREERKARRLKKIKSKTYRKIKKKELMKNRELAAVSSDEDNEDHDIARAKERMTLKHKTNSKWAKDMIKHGMTNDAETREEMEEMLRQGERLKAKMLDRNSDDEEDGRVQTLSDVENEEKENIDSEALKSKLGKTGVMNMAFMKNGEAREREANKETLRQLRAVENGDDIKLFESDEEETNGENIQINKGRRIYTPGSLESNKDMNELNDHTRKENKVDESRSLENRLRAKNSGQSKNARTNAEGAIIVEEESDGEPLQDGQNNQQDEEAKDVNPWLANESDEEHTVKKQSSKVNVIDKDSSKNVKAMNKMEKAELKQKKKKKGKSNDDEDLLLTADDSTRLKIVDPYGGSDDEQGDNVFMFKQQDVIAEAFAGDDVVAEFQEEKKRVIDDEDDKEVDTTLPGWGEWAGAGSKPKNKKRKFIKKVKGVVNKDKRRDKNLQNVIINEKVNKKNLKYQSSAVPFPFENREQYERSLRMPIGQEWTSRASHQELIKPRIMTKPGQVIDPLKAPFK
